The inconclusive results got no clear call from the source. A potency beside an inconclusive call is a rough fit, not a confirmed value.
test: qHTS Assay for Identification of Small Molecule Agonists for Hypoxia Response Element Signaling Pathway (AID 914); settings: ME-180 (cervical carcinoma) HRE-bla reporter, beta-lactamase ratio, CoCl2, 17 h; activation: stronger effect = higher value; active = well fitted activation curve with a large enough effect in the signal ratio, with a control signal flat (not every such curve was filed as active); inconclusive = small, poorly fitted or top-dose-only effect, or effect the other way, or a change in a side signal; inactive = flat fitted curve, though single readings scatter; the % refers to the signal ratio; for activation: top concentration of the series differs between compounds; % of control where 0% means no effect
In short: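 HRE-bla ME-180 cells with beta-lactamase reporter under hypoxia response element, compounds with EC50 CoCl2 for 17 hours at 37 C. CCF4 substrate, 460nm/530nm emission ratio gave %Activity; AC50 from titration series.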
Potency is the fitted concentration of half-maximal effect; tags give direction and shape of the fitted curve or compound fluorescence and quenching.

Row | Compound | activation | Potency
1 | Cc1nn(C)cc1/C=N/n1nnnc1N | inconclusive: 2.15% | –
2 | CCC1CCCCN1c1nc(-c2cccc(OC)c2O)nc2ccccc12 (stereo not given) | – | inconclusive: 10 µM [inhibitor, single point]
3 | CCCc1nc(NC2CCCCC2)c(C#N)c2c1COC(C)(C)C2 | inconclusive: -53.5% | –
4 | C=CCNc1nc(N2CCCCC2)c(C#N)c2c1CN(Cc1ccccc1)CC2 | – | inconclusive: 10 µM [inhibitor, partial curve]
5 | CN(C)c1ccc(O)c2c1CC1CC3[C@@H](N(C)C)C(=O)C(C(N)=O)=C(O)[C@]3(O)C(=O)C1=C2O (stereo not given in full) | – | inconclusive: 12.6 µM [inhibitor, single point]

Source: PubChem BioAssay (NCATS)
